Data taken from patent publication EP4450093A1, “CLEAVABLE IMMUNE CELL ENGAGERS” (Synaffix B.V., priority 2023, dated 2024).

Assays:
[1] = In vivo tolerability, single s.c. dose, body weight; set-up: species or system female BALB/c mice; conditions: for MTD: single dose s.c., groups of 3 mice, daily body weight
Description: Female BALB/c mice (groups of 3 mice, 6- to 8-week-old at study initiation, obtained from Vital River Laboratory Animal Technology Co., Ltd., China), were treated with vehicle (PBS pH 7.4) or the indicated antibody-cytokine conjugate (at 6 mg/kg), and compared to IC1 (at 6 mg/kg). In all cases a single dose was administered via s.c. injection. After dosing, all animals were measured daily for body weight (Figures 28 and 29, top graphs). Based on the read-out of this initial study, a second tolerability study was performed according to the same procedure but using dosing concentrations ranging from 3 to 12 mg/kg (Figures 28 and 29, middle graphs). Finally, a third study was performed according to the same procedure using dosing concentrations ranging from 4.5 to 18 mg/kg (Figures 28 and 29, bottom graphs).

IL-15 cells = experiment: In vitro IL-15 bioassay (Promega, bioluminescent, STAT-5 response element readout); format: cell-based, mouse
Description: IL-15 activity was monitored using an IL-15 bioassay (Promega, cat.# JA2015). This is a bioluminescent cell-based assay designed to measure IL-15 stimulation or inhibition using the STAT-5 response element as a readout. When IL-15 binds to its receptor, receptor-mediated pathway signalling induces luminescence that can be detected upon addition of a substrate and quantified with a luminometer. The assay was performed according to the manufacturer's instructions. In short, cleaved or intact antibody-cytokine conjugates or controls were added in duplo to IL-15 cells in a square root of 10-fold dilution series to obtain a final concentration ranging from 0.1 to 1000 pM unless stated otherwise (in case of cleaved constructs the concentration refers to the initial antibody-cytokine conjugate). IL-15 cells were incubated for 6 hours in a humidified atmosphere at 37°C and 5% CO2. Detection reagent (Bio-Gio™ luciferase Assay reagent) was then added and chemiluminescence intensity was recorded with a microplate reader (Envision, PerkinElmer). Data analysis was performed using Graphpad prism software. EC50 values were calculated by non-linear regression and maximum fold induction was calculated by dividing the relative luminescence units (RLU) of treated cells by the RLU of untreated cells (both background substracted).
The activity of 5 intact antibody-cytokine conjugates was measured via the in vitro IL-15 bioassay. mPD-L1-v1a-218-NHO2-PF52 (2:2) was included both with and without pretreatment with MT-SP1 for comparison. MT-SP1 treatment was performed according to example 58. […] Table 3. EC50 values and maximum fold induction of intact and cleaved antibody-cytokine conjugates as determined by the IL-15 bioassay.
Antibody-cytokine conjugates were pre-treated with MT-SP1 according to example 58 to obtain the free cytokines. The activity of 5 cleaved antibody-cytokine conjugates was measured via the in vitro IL-15 bioassay according to the general procedure. […] Table 4. EC50 values and maximum fold induction of antibody-cytokine conjugates pre-treated with MT-SP1 determined by the IL-15 bioassay
mPD-L1-v1a-218-NHO2-PF52 (2:2) and mPD-L1-v1a-218-NHO2-PF56 (2:2) were pre-treated with MT-SP1 according to example 58 to obtain the free cytokines. The activity of both compounds was measured with and without pre-treated with MT-SP1 using the in vitro IL-15 bioassay. Non-modified cytokine PF52 was included as a reference. Cleaved and intact mPD-L1-v1a-218-NHO2-PF56 (2:2) was added in a higher final concentration ranging from 32 pM to 316 nM (square root of 10-fold dilution series). […] Table 5. EC50 values and maximum fold induction of intact and cleaved antibody-cytokine conjugates as determined by the IL-15 bioassay. Non-modified cytokine P52 was included as a reference.
Non-modified cytokine PF50 and the non-modified antibody trastuzumab were included as controls. […] Table 6. EC50 values and maximum fold induction of intact and cleaved antibody-cytokine conjugates as determined by the IL-15 bioassay. Non-modified cytokine P52 was included as a reference.

[2] = Freeze-thaw stability study, aggregate levels by SE-HPLC; format: physicochemical; conditions: 1 mg/mL in PBS pH 7.4; snap-frozen in liquid nitrogen and thawed 5 times; SE-HPLC after 0, 1, 3 and 5 cycles; compared to genetic fusion IC1
Description: HPLC-SEC analysis was performed on an Agilent 1100 series (Hewlett Packard) using an Xbridge BEH200A (3.5 µM, 7.8x300 mm, PN 186007640 Waters) column. The sample was diluted to 1 mg/mL in PBS and measured with 0.86 mL/min isocratic method (0.1 M sodium phosphate buffer pH 6.9 (NaHPO4/Na2PO4) containing 10% isopropanol) for 16 minutes.
Next, samples were snap-frozen using liquid nitrogen and thawed again. This step was performed 5 times. Aggregate levels were determined by SE-HPLC after 0, 1, 3 and 5 cycles (Figure 21).

CT26 tumor cells = experiment: In vivo efficacy in CT26 syngeneic colon cancer model; set-up: species or system Female BALB/c mice; conditions: s.c. 3 or 6 mg/kg on day 0 and day 7; tumor volume
Description: Female BALB/c mice (5- to 8-week-old at study initiation, obtained from Vital River Laboratory Animal Technology Co., Ltd., China) were inoculated subcutaneously it the right rear flank region with 5 × 10^5 CT26 tumor cells in 0.1 ml of PBS for tumor development. When the tumor volume was in the range of 70 to 120 mm^3, groups of eight mice were injected s.c. with either vehicle (PBS pH 7.4) or the indicated antibody-cytokine conjugate (either 3 or 6 mg/kg as indicated). In all cases a dose was administered on day 0 and 7.

[3] = Stability in PBS pH 7.4 at 37°C by RP-UPLC (cytokine-to-antibody ratio); conditions: 1 mg/mL in PBS pH 7.4, 37°C
[4] = Table 4, pre-treated with MT-SP1 (+)
[5] = pre-treated with MT-SP1, versus mPD-L1-v1a-218-NHO2-PF52 (2:2)

B1: mPD-L1-v1a-218-NHO1-PF51 (2:2): conjugate of azido-remodeled anti-murine PD-L1 antibody mPD-L1-v1a with 218-NHO1-PF51 (SYR-cleavable linker 2-IL15), 2:2 format (conjugate)
light: QSALTQPASVSGSPGQSITISCTGTSSDVGAYNYVSWYQQHPGKAPKLMIYDVSNRPSGVSNRFSGSKSGNTASLTISGLQAEDEADYYCSSYTSSSTRVFGTGTKVTVLGQPKANPTVTLFPPSSEELQANKATLVCLISDFYPGAVTVAWKADGSPVKAGVETTKPSKQSNNKYAASSYLSLTPEQWKSHRSYSCQVTHEGSTVEKTVAPTEC
heavy: EVQLLESGGGLVQPGGSLRLSCAASGFTFSAYRMFWVRQAPGKGLEWVSSIYPSGGITFYADSVKGRFTISRDNSKNTLYLQMNSLRAEDTAIYYCARIKLGTVTTVDYWGQGTLVTVSSASTKGPSVFPLAPSSKSTSGGTAALGCLVKDYFPEPVTVSWNSGALTSGVHTFPAVLQSSGLYSLSSVVTVPSSSLGTQTYICNVNHKPSNTKVDKRV[human IgG1 Fc cut from this listing]
chain: MSYRGGGGSGGGGSRASRANGS[about 120 residues cut from this listing]
- Mean body weight loss ([1]; single dose s.c. at 18 mg/kg): ≤ 10%
- Signs of toxicity ([1]; single dose s.c. at 6 and 12 mg/kg): no signs of toxicity
- MTD [1]: ~ 18 mg/kg
- EC50 (IL-15 cells; [4]): 3.8 pM
- Fold induction (maximum) (IL-15 cells; [4]): 7.5
- Potency in terms of EC50 values and maximum fold induction compared to the genetic fusion IC1 (IL-15 cells; pre-treated with MT-SP1): higher potency
- Aggregation after freeze-thaw cycles [2]: less prone to aggregation

B2: mPD-L1-v1a-145-NHO2-PF52 (2:1): conjugate of mPD-L1-v1a-145 (cross-linked with trivalent linker 145) with NHO2-PF52, 2:1 format (conjugate)
light: B1 light
heavy: B1 heavy
chain: STGGGGSGGGGSRASRANGS[about 120 residues cut from this listing]
- Anti-tumor efficacy compared to the vehicle group (CT26 tumor cells): anti-tumor efficacy compared to the vehicle group
- MTD [1]: ~9 mg/kg
- EC50 (IL-15 cells; [4]): 7.7 pM
- Fold induction (maximum) (IL-15 cells; [4]): 7.3
- Fold higher EC50 value compared to the 2:2 format (IL-15 cells; [5]): ~2 fold
- Aggregation after freeze-thaw cycles [2]: less prone to aggregation

B3: mPD-L1-v1a-218-NHO2-PF56 (2:2): conjugate of mPD-L1-v1a with 218-NHO2-PF56 (ST-cleavable linker 2-IL15(E46G,V49R)), lacking IL-15Rα-binding, 2:2 format (conjugate)
light: B1 light
heavy: B1 heavy
chain: MSTGGGGSGGGGSRASRANGS[about 120 residues cut from this listing]
- Anti-tumor efficacy compared to the vehicle group (CT26 tumor cells): anti-tumor efficacy compared to the vehicle group
- Mice found dead ([1]; single dose s.c. 6 mg/kg, day 5): 1 out of 3
- MTD [1]: ~ 4.5 mg/kg
- Fold induction (maximum) (IL-15 cells; Table 5, MT-SP1 +, PF56 conjugate tested at 32 pM to 316 nM): 5.2
- Fold higher EC50 value (IL-15 cells; [5]): > 1000 fold

B4: mPD-L1-v1a-218-NHO2-PF54 (2:2): non-cleavable variant: conjugate of mPD-L1-v1a with 218-NHO2-PF54 (ST-(G4S)3GGS-IL15), 2:2 format (conjugate)
light: B1 light
heavy: B1 heavy
chain: STGGGGSGGGGSGGGGSGGS[about 120 residues cut from this listing]
- Stability as percentage of the cytokine-to-antibody ratio compared to T0 ([3]; day 1): 99%
- Stability as percentage of the cytokine-to-antibody ratio compared to T0 ([3]; day 3): 97%
- Stability as percentage of the cytokine-to-antibody ratio compared to T0 ([3]; day 7): 95%
- Stability as percentage of the cytokine-to-antibody ratio compared to T0 ([3]; day 10): 93%
- Stability as percentage of the cytokine-to-antibody ratio compared to T0 ([3]; day 14): 92%
- Stability as percentage of the cytokine-to-antibody ratio compared to T0 ([3]; day 21): 86%
- Stability as percentage of the cytokine-to-antibody ratio compared to T0 ([3]; day 28): 85%
